About 11,000 (3.1%) of roughly 360,000 compounds were called active. The shares of active, inactive and inconclusive entries below differ from those in the screen. The call rests on the fitted dose curve; in most records, active means well fitted inhibition curve with a large enough effect; inconclusive means small, poorly fitted or top-dose-only effect; inactive means no such curve, though single readings can be large or run the other way. Potencies of inconclusive entries are left out as doubtful fits.
Target: Schistosoma mansoni thioredoxin glutathione reductase (TGR) (UniProt Q962Y6)
Assay: qHTS Assay for the Inhibitors of Schistosoma Mansoni Peroxiredoxins; further: nearly all actives have a fitted effect of over 60% in size
Conditions: purified TGR, DTNB reduction, TNB absorbance 405 nm; series mostly up to 114 µM
Procedure, shortened: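 TGR 20 nM + NADPH 100 uM (dispensed conc.), cpd preinc 15 min RT; start with NADPH (500 uM addition) then DTNB (15 mM addition). Kinetic TNB absorbance, 405 nm filter. Four-parameter Hill fit across titration.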
Potency means the concentration at half of the fitted maximal effect; tags describe the fitted curve by direction and shape.

SMILES	Potency
COc1ccc(-c2nc(CS(=O)CC(=O)NCc3ccc(F)cc3)c(C)o2)cc1 (configuration not stated)	inconclusive [inhibitor, partial curve]
CCCOc1ccc(-c2nc(C#N)c(N3CCN(CC)CC3)o2)cc1	inconclusive [inhibitor, single point]
CC(C)c1ccc(CN(C(=O)c2ccco2)C2CCS(=O)(=O)C2)cc1 (configuration not stated)	inactive
O=S(=O)(NN=C1CCCCC1)c1ccccc1	inconclusive [inhibitor, partial curve]
CCCCn1c(C)cc2c(c1=O)C1O[C@](c3ccsc3)(Cc3cc(OC)c(OC)cc31)O2	inconclusive [inhibitor, partial curve]
O=[N+]([O-])/C=C/c1c(OCc2ccccc2)ccc2ccccc12	inconclusive [inhibitor, full curve]
N#CC(C#N)=Cc1ccc(N2CCOCC2)cc1	active: 3.16 µM
CCCCC(=O)Nc1nnc(S(=O)(=O)N(C)Cc2ccco2)s1	inconclusive [inhibitor, partial curve, poor fit]
O=C(CSc1nc2nc(-c3cccs3)cc(C(F)(F)F)c2c(=O)[nH]1)C(F)(F)F	active: 3.55 µM
COC(=O)c1ccc(NS(=O)(=O)c2ccccc2)o1	inconclusive [inhibitor, partial curve]
C=CCN1C=CC(=CC=C(C#N)C#N)C=C1	inactive
Cc1ccc(-n2nnnc2SCC(=O)Nc2sc(C)c(C)c2C#N)cc1C	inconclusive [inhibitor, partial curve]
NS(=O)(=O)OCCCCCc1ccccc1	inactive
Nc1nnc(SCC(=O)Nc2cccc(S(=O)(=O)N3CCCCC3)c2)s1	inactive
COC(=O)c1c(NC(=O)CN2C(=O)C(=O)N(CC(C)C)C2=O)sc(C)c1C	inactive
Cc1[nH]c2ccccc2c1C(=O)CN1CC(C)CC(C)C1 (configuration not stated)	inconclusive [inhibitor, partial curve]
COC(=O)c1sc2cccc(F)c2c1S(=O)(=O)Nc1ccc(N(C)C)cc1	inactive
Cc1cc(-c2csc(Nc3ccccn3)n2)ccc1F	inactive
Cc1cccc(C(CC(=O)N2CCCCC2)c2ccccc2)c1O (configuration not stated)	active: 28.2 µM
CS(=O)(=O)c1ccc(Cl)c(NC(=O)COC(=O)c2ccc(-n3cnnn3)cc2)c1	inactive
O=C(C[n+]1ccccc1)Nc1ccccc1Br	active: 0.1 µM
O=C(CN1CC(=O)Oc2ccccc21)OCC(=O)c1cccc(Br)c1	inconclusive [inhibitor, partial curve]
C=CCN(C(=O)CC(NC(C)=O)c1ccccc1)c1nc(-c2ccc(S(C)(=O)=O)cc2)cs1 (configuration not stated)	inactive
C[n+]1cccc2c(Br)ccc([O-])c21	active: 44.7 µM
CC(C)NC(=O)CN1CCN(C(=O)c2ccc3oc(CCCc4ccccc4)nc3c2)CC1	inconclusive [inhibitor, partial curve]
COc1cc(/C=C/c2nc(C#N)c(N3CCCCC3)o2)cc(OC)c1OC	inactive

SMILES	Potency
CC(C)(CO)NC(=O)CC1C(=O)NCCN1CC(c1ccccc1)c1ccccc1 (configuration not stated)	inconclusive [inhibitor, full curve, poor fit]
Cc1ccc(NC(=S)NCCc2ccc(S(N)(=O)=O)cc2)cc1C	inconclusive [inhibitor, partial curve, poor fit]
O=C(O)c1ccc(NC2=C(Cl)C(=O)c3ccccc3C2=O)cc1	inconclusive [inhibitor, full curve, poor fit]
CC12CN3CC(=O)N4CC5(C)CN(CC(C)(C4)C5=O)C(=O)CN(C1)CC(C)(C3)C2=O	inconclusive [inhibitor, partial curve]
O=C(O)C1Nc2c(O)cc(Cl)c([N+](=O)[O-])c2C2C=CCC12 (configuration not stated)	active: 3.55 µM
COc1cccc2sc3ccc(NCCC4CCCN4C)cc3c(=O)c12 (configuration not stated)	inconclusive [inhibitor, partial curve]
COCC(=O)Nc1ccc2c(c1)OCO2	inactive
Cc1cc2nn(-c3ccccc3)nc2cc1NC(=O)COc1ccc(Cl)cc1	inconclusive [inhibitor, single point]
CC1(OC(=O)CCc2ccccc2)C(=O)C=C2C=C(c3ccc(C#N)cc3)N(CCN3CCOCC3)C=C2C1=O (configuration not stated)	inactive
Cc1cc(C)c(NC(=O)CSc2nnc(-c3ccncc3)n2Cc2ccco2)c(C)c1	inconclusive [inhibitor, partial curve]
COc1ccccc1NC(=O)COC(=O)c1ccc([N+](=O)[O-])s1	inconclusive [inhibitor, full curve]
CCOc1ccc(NC(=O)c2ccc(CN3CCc4ccccc4C3)cc2)cc1	inactive
CC(=O)OCC1O[C@@H](O[C@@H]2C[C@H]3C(C)(C)[C@H](OC(C)=O)CC[C@]3(C)[C@H]3CC[C@]45C[C@]4(CC[C@H]5[C@@H](C)C[C@@H](O)[C@H](O)C(C)(C)O)[C@@]32C)[C@H](O)[C@@H](O)[C@@H]1O (some centres not stated)	inactive
O=C(Nc1ccc(S(=O)(=O)Nc2ccc(F)cc2)cc1)c1ccc(CN2CCOCC2)cc1	inactive
CCCCCCCCCCCCC/C=C/[C@@H](O)[C@@H](N)CO	inactive
O=C(CSC1=Nc2ccccc2N=C(c2ccc(F)cc2)C1)Nc1cccc(C(F)(F)F)c1	inactive
COc1ccc(-c2cn(CCO)c(-c3ccncc3)n2)cc1	inconclusive [inhibitor, partial curve]
CSCc1c(C(=O)OCC(=O)c2ccc[nH]2)oc2ccccc12	inconclusive [inhibitor, partial curve]
CN(CC(=O)O/N=C(\N)c1ccccn1)S(=O)(=O)c1cc(Cl)ccc1Cl	inactive
O=C(Cc1ccccc1)Nc1ccc(NC(=O)c2ccco2)cc1Cl	inactive
O=C(NCCCN1CCCC1=O)c1cccc(NS(=O)(=O)c2ccccc2)c1	inactive
CN1N=C2c3ccccc3CCCC2C1c1ccc(F)cc1 (configuration not stated)	inactive
O=C(Nc1ccccc1)Nc1ccc2ccccc2n1	inconclusive [inhibitor, full curve, poor fit]
CCOC(=O)C1=C(O)/C(=C\c2cc(C)n(-c3ccccc3F)c2C)N=C1C	active: 25.1 µM
O=C(CSc1nnc(COc2ccccc2)n1Cc1ccco1)NCc1ccco1	inconclusive [inhibitor, full curve]
CCOC(=O)c1ccc(N2C(=O)c3n[nH]c(-c4ccco4)c3C2c2ccc(OCC)cc2)cc1 (configuration not stated)	inconclusive [inhibitor, partial curve]

SMILES	Potency
O=S(=O)(NCc1ccc(F)cc1)c1ccc(Br)cc1Br	inactive
CN1CCN(CCCNC(=O)c2cc3c(=O)n(C)c4ccccc4c3s2)CC1	inconclusive [inhibitor, partial curve]
CCN(CC)C(=O)CC(c1ccc(F)cc1)c1ccco1 (configuration not stated)	active: 28.2 µM
COCCN1C(=O)NC(=O)/C(=C\c2ccc(Br)cc2)C1=O	inconclusive [inhibitor, partial curve, poor fit]
CCOC(=O)c1c(C)[nH]c(CCC(=O)Nc2c(C)cccc2CC)c1C	inactive
COC(=O)c1ccc(S(=O)(=O)N2CCCN(Cc3ccc(F)cc3)CC2)n1C	inconclusive [inhibitor, partial curve]
CCN(CC)c1ccc2cc(C=O)c(=O)oc2c1	inconclusive [inhibitor, full curve, poor fit]
CCn1cc(S(=O)(=O)Nc2cc(C(=O)OC)ccc2C)cn1	inactive
CCN(CC(=O)NCc1ccc(Cl)cc1)C(=O)/C=C/c1ccco1	active: 25.1 µM
Cc1ccc(CN(C)CC(=O)Nc2ccccc2C(=O)NC2CC2)o1	inconclusive [inhibitor, single point]
O=[N+]([O-])c1cc(CN(CCO)CCO)ccc1O	inconclusive [inhibitor, partial curve]
CCOc1ccc(NCc2nc3ccccc3n2CCOc2ccccc2)cc1	inactive
N#Cc1cc2c(nc1SCC(=O)Nc1sc3c(c1C#N)CCC3)CCC2	inconclusive [inhibitor, partial curve]
COc1cccc(-c2ccc3c(N)c(C(=O)NC4CC4)sc3n2)c1	inactive
O=C(NCC#CCSc1nnc(-c2cccc3ccccc23)o1)c1cccs1	active: 22.4 µM
CCOC(=O)/C=C/[C@H]1CCc2cccc(Cl)c2O1	inconclusive [inhibitor, partial curve]
COc1cc(C2/C(=C(\O)c3ccc4c(c3)CC(C)O4)C(=O)C(=O)N2CCCn2ccnc2)ccc1O (configuration not stated)	inactive
CC1(C)CC(=O)C2=C(C1)N(Cc1ccco1)C(=O)C2(NC(=O)c1cccnc1)C(F)(F)F (configuration not stated)	active: 20 µM
Cc1ccc(CSc2oc(-c3ccco3)nc2S(=O)(=O)c2ccc(C)cc2)cc1	inactive
CN(CC(=O)N1CCc2ccccc21)S(=O)(=O)c1cccs1	inactive
CCCN(CCC)C(=O)Cn1c(=O)n(-c2ccccc2)c(=O)c2c3c(sc21)CCCC3	inactive
CCOc1ccc2nc(N3CCCC(C(=O)NCC4CCCO4)C3)sc2c1 (configuration not stated)	inactive
Cc1ccc(C(=O)OC(C)CN2C(C)CCCC2C)cc1 (configuration not stated)	inactive
Cc1ccc(NC2(C#N)C(=O)Nc3ccccc32)cc1 (configuration not stated)	inconclusive [inhibitor, single point]
CCCN1CCN(c2ncnc3c2nnn3Cc2ccccc2)CC1	inconclusive [inhibitor, single point]
